Test results taken from the supplement of paper PMC10126150.
Values marked as one replicate rest on one cluster of the flow cell; about a third of the high ones do not repeat.

Test system: ATP
Experiment: switch fluorescence ratio, 500 uM ATP over buffer (Cy3 cluster intensity, sum of 5 cycles each) (fold (ratio)); higher = stronger signal-on switching upon ATP binding; sequences stand for … in TCGTCGGCAGCGTCAGATGTGTATAAGAGACAGTTTTTTTTTTTTTTTTTTTTTTTTT…TC
Conditions: aptamer strand: ATP DNA aptamer (quencher-CACCTGGGGGAGTATTGCGGAGGAAGG + anchor), 100 nM annealed; ATP concentration: 500 uM; one replicate
How it was run: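 Per cluster, summed Cy3 intensity from the target cycles was divided by that from the buffer cycles to give the fluorescence ratio, then averaged per switch-domain sequence. Clusters outside 100-1000 RFU were excluded. The Cy3-labelled switching-strand clusters, on a modified Illumina MiSeq flow-cell, were annealed to 100 nM quencher-labelled ATP aptamer and imaged in selection buffer, then after 15 min with 500 uM ATP at 22 °C, for five cycles with NaOH stripping and re-annealing between them.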
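Further: ATP exposure 15 min at 22 °C before imaging.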

AATTTTAGAC
switch fluorescence ratio: 1.04

GCCGACGGGA
switch fluorescence ratio: 1.29

ACTAACCTGG
switch fluorescence ratio: 1.16

CACTTTGAGC
switch fluorescence ratio: 1.08

GGATGCTAAA
switch fluorescence ratio: 1.02

TAATGAGTAG
switch fluorescence ratio: 0.979

AATCACAGTA
switch fluorescence ratio: 1.06

GAAGTCGCCA
switch fluorescence ratio: 0.98

GTGATCGCTG
switch fluorescence ratio: 0.94

TATTGATTGT
switch fluorescence ratio: 0.974

CGGTGGTGG
switch fluorescence ratio: 0.973

AGTTCATACT
switch fluorescence ratio: 1.04

CCTGTAATAA
switch fluorescence ratio: 1.72

GTGGGAAATT
switch fluorescence ratio: 1.01

GTTTCCGGGG
switch fluorescence ratio: 1.09

ACGTTGGCCT
switch fluorescence ratio: 1.04

TTGCCGTGGA
switch fluorescence ratio: 0.991

TATAACGGTG
switch fluorescence ratio: 1.02

CCGGATTTTT
switch fluorescence ratio: 1.02

GAGTGTTATC
switch fluorescence ratio: 1.03

AACGCGGGC
switch fluorescence ratio: 1.29

TTCGAGACTC
switch fluorescence ratio: 1

ACAACCAGTG
switch fluorescence ratio: 3.38

AACCGTTAGG
switch fluorescence ratio: 0.991

TAGGTACCTT
switch fluorescence ratio: 0.969

AAGAACGGGT
switch fluorescence ratio: 0.977

ACGGTTGTAA
switch fluorescence ratio: 1.05

CATGCTGCG
switch fluorescence ratio: 1.09

TAGGAAATTC
switch fluorescence ratio: 0.989

CGCTGACCAG
switch fluorescence ratio: 0.999

AGGTTTCGTG
switch fluorescence ratio: 0.984

AATCCCTTCC
switch fluorescence ratio: 2.28

CCAGTTGAGG
switch fluorescence ratio: 0.97

ATGCTTAAGC
switch fluorescence ratio: 1.03

AATAGTTCCT
switch fluorescence ratio: 1.04

TCGACGGTGA
switch fluorescence ratio: 0.993

TTATGGTGGA
switch fluorescence ratio: 0.999

TACGTGCCCT
switch fluorescence ratio: 1.06

TGTCGTGATT
switch fluorescence ratio: 1.03

CAGCTGGCCG
switch fluorescence ratio: 1.06

TCTACGAGCC
switch fluorescence ratio: 1.16

ACTATCCCAC
switch fluorescence ratio: 3.34

TAATTGCTTA
switch fluorescence ratio: 1.02

CGTACTCGGC
switch fluorescence ratio: 1.09

ATAAAGATGT
switch fluorescence ratio: 1.02

GCTCATGCGG
switch fluorescence ratio: 0.989

TTCTATTAAC
switch fluorescence ratio: 1.07

CATGTTAAAG
switch fluorescence ratio: 0.99

TAACGTTTAG
switch fluorescence ratio: 0.987

TAGGTTAGTC
switch fluorescence ratio: 0.948

GTGTCTGCAG
switch fluorescence ratio: 1.01

ACAATCGCTG
switch fluorescence ratio: 1.01

GCTCGCCTGT
switch fluorescence ratio: 1.03

TAAAGGTTT
switch fluorescence ratio: 0.966

CTGGAACATA
switch fluorescence ratio: 1.03

CATTCGTCCG
switch fluorescence ratio: 1.34

TGTTGATGGC
switch fluorescence ratio: 1

TCATATGTGC
switch fluorescence ratio: 0.989

AGACTGGTAG
switch fluorescence ratio: 0.966

CTATGTGGCA
switch fluorescence ratio: 1.23

ATTTTTGCTA
switch fluorescence ratio: 0.974

ATTCGGGCCC
switch fluorescence ratio: 1.01

AAATCAGAAG
switch fluorescence ratio: 0.989

AACGGATCGC
switch fluorescence ratio: 1.03

ATGGTAAGTG
switch fluorescence ratio: 0.928

CTATAAAACC
switch fluorescence ratio: 1.05

CCTTTAGCG
switch fluorescence ratio: 1.11

CGTAATGCCC
switch fluorescence ratio: 1.01

AAATACGAGG
switch fluorescence ratio: 1.04

AATTGTAAGG
switch fluorescence ratio: 1.01

CAAGTGGGTT
switch fluorescence ratio: 1.02

AATCAACTTG
switch fluorescence ratio: 1.01

GCAATACCAG
switch fluorescence ratio: 4.08

ATACAAGGGT
switch fluorescence ratio: 0.989

TTGTGCAGT
switch fluorescence ratio: 1.07

GAATTGAAGG
switch fluorescence ratio: 0.985

TAGGGTCCTA
switch fluorescence ratio: 0.979

AAATATACAA
switch fluorescence ratio: 1.13

TTGATCTGAC
switch fluorescence ratio: 1.07

TAGTTTACC
switch fluorescence ratio: 1.02

CATGGTTTAC
switch fluorescence ratio: 0.989

GCTTATCTTG
switch fluorescence ratio: 0.989

CAATGAACAT
switch fluorescence ratio: 1.04

TTAGTGCTGT
switch fluorescence ratio: 0.965

AACATCTTCT
switch fluorescence ratio: 0.992
